This is one part of the list. For some of these results: At the low end of the ranking, values are background and their order means little. For some of these results: Measured with an extract: partners may take part in the binding.

49 sequences from PMC6451091 can be followed below.

Holding throughout (details): 20 mM HEPES pH 7.9, 100 mM NaCl, 1 mM DTT, 0.2 mg/mL BSA, 0.02% Triton X-100, 2% milk, 0.4 mg/mL salmon testes DNA; 1 h; temperature not stated; high values mean tight binding; double strand, one strand shown; sequences stand for … in GCCTAGCAC…GTGCTAGGTCTTGATTCGCTTGACGCTGCTG
Assay [1] concerns the target PU.1 (IVT) (UniProt P17947). The assay can be described thus: protein-binding microarray (PBM).
The target in assay [2] is PU.1 (endogenous, THP-1 nuclear extract) (UniProt P17947). The assay can be described thus: nuclear extract protein-binding microarray (nextPBM).
The target in assay [3] is T1, FLI1 (endogenous, THP-1 nuclear extract) (UniProt Q01543).
T1 sequence: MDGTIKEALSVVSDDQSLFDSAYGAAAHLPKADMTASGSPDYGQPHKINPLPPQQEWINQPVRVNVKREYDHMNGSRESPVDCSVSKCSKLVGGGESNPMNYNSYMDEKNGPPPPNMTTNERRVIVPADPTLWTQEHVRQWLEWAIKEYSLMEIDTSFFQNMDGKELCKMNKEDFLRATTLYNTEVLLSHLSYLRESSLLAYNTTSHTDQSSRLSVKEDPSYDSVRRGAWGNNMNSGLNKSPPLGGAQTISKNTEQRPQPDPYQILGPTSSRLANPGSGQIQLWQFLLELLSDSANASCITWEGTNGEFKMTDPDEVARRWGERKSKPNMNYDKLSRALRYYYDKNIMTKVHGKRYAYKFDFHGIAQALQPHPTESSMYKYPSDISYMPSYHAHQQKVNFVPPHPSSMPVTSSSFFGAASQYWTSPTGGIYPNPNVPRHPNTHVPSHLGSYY
The description is as above.

Assay [4] concerns PU.1 (endogenous, THP-1 nuclear extract) + IRF8 (endogenous, THP-1 nuclear extract). Described as above.

As for CAATGAAAGCTAACTGATGC, the binding signal in assay [1] is -0.24 z-score; in assay [2], -0.00694 z-score; in assay [3] it was -0.528 z-score; in assay [4], -0.473 z-score.
In the same order, the values of TAGCCGCCTCTTGGACGGGC are -0.609 z-score, -0.308 z-score, -0.592 z-score and 1.22 z-score.
In the same order, the values of TGCATTGCCTGGCCGGGTGA are -0.116 z-score, -0.119 z-score, -0.414 z-score and 0.659 z-score.
In the same order, the values of GAAATTACTGCGTGAAAGCA are 0.0899 z-score, -0.761 z-score, -0.415 z-score and -1.03 z-score.
GCCAGCCCCCAACCCTGGTC: the binding signal in assay [1] is 0.0931 z-score; in assay [2] it was -0.25 z-score; in assay [3] it was -0.844 z-score; in assay [4], -0.181 z-score.
In the same order, the values of TTGGGTGAAGTGTTCTGTAT are -0.0133 z-score, -0.133 z-score, 0.00434 z-score and 2.39 z-score.
In the case of TAGTCAGGATTCTCTCTAAC, the binding signal in assay [1] was -0.716 z-score; in assay [2], -0.406 z-score; in assay [3], -0.497 z-score; in assay [4] it was -0.257 z-score.
In the same order, the values of ATGTGATTTCCTCCTCTAAG are 1.71 z-score, 1.02 z-score, 1.93 z-score and -1.25 z-score.
In the same order, the values of CACCGCGGACTCTGCTCCGG are -0.538 z-score, -0.429 z-score, -0.0947 z-score and 0.305 z-score.
GCTTCCTCTGCTTTAAATTC: the binding signal in assay [1] is 2.37 z-score; in assay [2], 2.09 z-score; in assay [3] it was 2.37 z-score; in assay [4], -0.003 z-score.
For the sequence TCAGCCCTCGGGTGGATAGT, the binding signal in assay [1] was -0.094 z-score; in assay [2] it was 0.00504 z-score; in assay [3], -0.745 z-score; in assay [4], 0.496 z-score.
On to AAGTGGCTTCCGCTTACTGG, for which the binding signal in assay [1] is 3.16 z-score; in assay [2], 3.44 z-score; in assay [3], 3.38 z-score; in assay [4] it was 0.32 z-score.
In the same order, the values of ACCAATGGGCGTGGGGGAGG are 0.158 z-score, 0.000911 z-score, -0.702 z-score and -1.34 z-score.
Take TGGTTGTACCACACCTCAAC: the binding signal was -0.0859 z-score in assay [1], -0.215 z-score in assay [2], -0.346 z-score in assay [3] and -0.208 z-score in assay [4].
As to TTGCACAAGGAGGAAGTGAG, the binding signal in assay [1] came to 6.01 z-score; in assay [2] it was 6.5 z-score; in assay [3], 3.51 z-score; in assay [4] it was 0.447 z-score.
Take TCATGAAAGGCCAAATGGGT: the binding signal is -0.076 z-score in assay [1], -0.205 z-score in assay [2], -0.25 z-score in assay [3] and 0.312 z-score in assay [4].
In the same order, the values of GCTGCCTGAAAATGTGGCTC are -0.446 z-score, -0.548 z-score, -0.144 z-score and -0.485 z-score.
As to GATACCTTGCCAATATTGGA, the binding signal in assay [1] is -0.543 z-score; in assay [2], -0.326 z-score; in assay [3], -0.14 z-score; in assay [4], -0.639 z-score.
In the case of GGTTTAAAACGGGAAAACGA, the binding signal in assay [1] is 0.661 z-score; in assay [2], 0.728 z-score; in assay [3], 1.32 z-score; in assay [4], -1.5 z-score.
For the sequence TACTATATATGTGGTCACCC, the binding signal is 0.45 z-score in assay [1], -0.361 z-score in assay [2], -0.0492 z-score in assay [3] and -0.874 z-score in assay [4].
In the same order, the values of TGCATGACTGCGTGAAAGAA are 0.608 z-score, 0.0034 z-score, -0.337 z-score and -0.426 z-score.
Regarding CTCCAAATGCATTTCTTGGT, the binding signal in assay [1] was -0.237 z-score; in assay [2], -0.255 z-score; in assay [3], -0.253 z-score; in assay [4], 0.0526 z-score.
On to GGGTGCTTATGACAGCAGGA, for which the binding signal in assay [1] was -0.192 z-score; in assay [2], -0.255 z-score; in assay [3], -0.903 z-score; in assay [4], -0.733 z-score.
As for AAAAGGACTGCGTGAAAGTA, the binding signal in assay [1] was 0.0725 z-score; in assay [2], -0.528 z-score; in assay [3], -0.559 z-score; in assay [4], 0.0367 z-score.
As to CCCCTGCATATTTTTTTGGC, the binding signal in assay [1] was 0.02 z-score; in assay [2] it was -0.262 z-score; in assay [3] it was -0.165 z-score; in assay [4], -0.434 z-score.
Regarding TCAGCCATAATTATGACCTA, the binding signal was -0.152 z-score in assay [1], -0.232 z-score in assay [2], -0.856 z-score in assay [3] and -0.809 z-score in assay [4].
In the same order, the values of GTTAACTTTCTAGAAACTTT are 0.0606 z-score, -0.296 z-score, -0.474 z-score and -0.0118 z-score.
Take TAGATGACTGCGTGAAACTC: the binding signal in assay [1] was -0.412 z-score; in assay [2] it was -0.526 z-score; in assay [3], -0.434 z-score; in assay [4] it was 0.677 z-score.
Take GTCAGAATGAGATTAGTATT: the binding signal was 0.0803 z-score in assay [1], -0.442 z-score in assay [2], -0.664 z-score in assay [3] and 0.0407 z-score in assay [4].
Turning to TCGGGAAGAGAAGCACAAAG, the binding signal in assay [1] is -0.263 z-score; in assay [2], 0.0229 z-score; in assay [3] it was 0.323 z-score; in assay [4], -0.442 z-score.
Take GATCCGTCAAAATGGGCCTC: the binding signal was -0.456 z-score in assay [1], -0.522 z-score in assay [2], -0.402 z-score in assay [3] and -0.594 z-score in assay [4].
On to GAAAGGACTGCGTGAAACTA, for which the binding signal is -0.863 z-score in assay [1], -0.39 z-score in assay [2], -0.178 z-score in assay [3] and 5.37 z-score in assay [4].
In the same order, the values of GACGGCTCCGGCGTCGGGTC are -0.273 z-score, 0.0236 z-score, -0.341 z-score and 1.19 z-score.
On to TCCACAGCAAGGCTGCCGTG, for which the binding signal is 0.12 z-score in assay [1], 0.034 z-score in assay [2], -0.632 z-score in assay [3] and 0.752 z-score in assay [4].
GGAGTATGGCAGAAGAACCA: the binding signal was 0.189 z-score in assay [1], -0.252 z-score in assay [2], -0.683 z-score in assay [3] and -1.25 z-score in assay [4].
In the same order, the values of ATACTCCACCCCTTTCTCAA are -0.0234 z-score, -0.6 z-score, -0.356 z-score and -0.278 z-score.
Take CTTTCCAAAACGTTTAGTCA: the binding signal in assay [1] was -0.529 z-score; in assay [2], -0.545 z-score; in assay [3], 0.208 z-score; in assay [4], -0.977 z-score.
In the same order, the values of TTCTTTCGCAGGTCAGGGCA are 0.131 z-score, 0.369 z-score, -0.294 z-score and 0.891 z-score.
In the same order, the values of CATAAGAATGTGAACGAGGC are 0.166 z-score, -0.223 z-score, -0.42 z-score and -0.371 z-score.
In the same order, the values of ATTCGGTAGCGCAGGCTCCG are -0.464 z-score, -0.405 z-score, 0.15 z-score and 0.0052 z-score.
As for GGGCCATGGATGGGCAAAAG, the binding signal in assay [1] was -0.378 z-score; in assay [2], -0.237 z-score; in assay [3], -0.976 z-score; in assay [4], -0.198 z-score.
On to GAAGAGCATGGGCAGGATGG, for which the binding signal in assay [1] is -0.755 z-score; in assay [2] it was -0.398 z-score; in assay [3], 1.28 z-score; in assay [4], 2 z-score.
As for AGGGGACGCATTCTAACCAC, the binding signal in assay [1] is -0.366 z-score; in assay [2], -0.612 z-score; in assay [3], -0.774 z-score; in assay [4], 0.404 z-score.
In the same order, the values of ACGCTGGATCAGGTGACGCA are -0.628 z-score, -0.519 z-score, -0.339 z-score and -0.824 z-score.
In the same order, the values of TATCTAAATGGATCTGGTTT are -0.0351 z-score, -0.229 z-score, 0.0508 z-score and -0.367 z-score.
With CTTGAGTGGCGTCTTAACCT, the binding signal in assay [1] was -0.359 z-score; in assay [2], -0.211 z-score; in assay [3] it was -0.534 z-score; in assay [4], 0.628 z-score.
In the same order, the values of AACTCTTGCTTTTAAGGAGC are -0.338 z-score, -0.281 z-score, -0.3 z-score and -0.746 z-score.
As for GAAGGAGGGAAGAGGCTGGA, the binding signal in assay [1] was -0.023 z-score; in assay [2] it was 0.701 z-score; in assay [3] it was 0.287 z-score; in assay [4], 0.0588 z-score.
In the same order, the values of AAATGGAATCATGCAGTACT are -0.0138 z-score, -0.254 z-score, 0.0699 z-score and -0.713 z-score.
